# In PubChem BioAssay AID463173 (ICCB-Longwood Screening Facility, Harvard Medical School, 2010):
# The whole screen tested about 52,000 compounds, of which about 1,700 (3.3%) were called active. Rule as the data show it: active = survival mostly below about 52% (no sharp cut-off); inactive = mostly above about 56%. This is one part of the list.
# Test system: Wild type
# Assay: growth inhibition of S. aureus wild type versus tarO mutant, primary screen, teichoic acid synthesis inhibitors, RN4220, OD600 (AID 463173)
# Conditions: S. aureus RN4220 wild type/DeltatarO growth, OD600, 18 h, hits give low values, screened at 18.75 µg/mL (by protocol)
row,SMILES,survival
1,CCOC(=O)C1CCN(C(=O)c2ccc(-n3ccc4ccccc43)s2)CC1,inactive: 71%
2,Cc1ccccc1C1CC(=O)Nc2ccc3ccccc3c21 (configuration not stated),inactive: 84%
3,Cc1cccc(NC(=O)N2CC(=O)Nc3sc4c(c3C2c2ccccc2)CCCC4)c1C (configuration not stated),inactive: 76%
4,Cc1ccc(C(=O)c2cn(CC(=O)Nc3ccc(C)cc3Cl)c3nc(C)ccc3c2=O)cc1,inactive: 95%
5,CCOc1cc(CNC(=O)c2ccc3c(c2)NC(=O)C2CCCCN32)cc(OCC)c1OCC (configuration not stated),inactive: 94%
6,Cc1ccc(Cl)cc1N1CCN(C(=O)c2ccc3c(c2)N(Cc2ccc(F)cc2)CCS3)CC1,inactive: 83%
7,Cc1cn2c(=O)cc(COC(=O)c3ccc(NC(=O)COc4ccccc4F)cc3)nc2s1,inactive: 85%
8,CCOc1ccccc1OCCCn1c(-c2ccc(Cl)cc2)nc2ccccc2c1=O,inactive: 46%
9,Cc1cc(C)cc(-n2c(-c3ccccc3)c(C)n3c4c(=O)n(C)c(=O)n(C)c4nc23)c1,inactive: 79%
10,COc1ccc(CN(C(=O)CSc2nnc(-c3ccc(OC)c(OC)c3)o2)c2ccc(F)cc2)cc1,inactive: 99%
11,Nc1nn(-c2ccccc2)nc1NC=O,inactive: 106%
12,CCOc1ccc(CCNC(=O)Cn2nc(CC)n3c(cc4ccccc43)c2=O)cc1,inactive: 81%
13,Cc1ccc(S(=O)(=O)N(C)c2c(C)ccc(S(=O)(=O)n3nc(C)cc3C)c2C)cc1,inactive: 120%
14,COc1ccc(-c2c3c(=O)n(C)c(=O)n(C)c3c3n2-c2ccccc2NC3c2ccco2)cc1 (configuration not stated),inactive: 57%
15,Cc1cc(=O)n(CC(=O)N2CCN(c3ccccc3F)CC2)c2c1c(C)nn2C,inactive: 66%
16,CCc1ccccc1NC(=O)c1cnc(N2CCCCC2)c2ccccc12,inactive: 72%
17,COc1cc(C(=O)NCC(c2cccs2)S(=O)(=O)c2cccs2)cc(OC)c1OC (configuration not stated),inactive: 67%
18,CCOC(=O)c1[nH]c(C)c(CCC(=O)Nc2cc(C)ccc2OC)c1C,inactive: 82%
19,CCC(Sc1nc(-c2ccccc2F)nc2c1Cc1c(CO)cnc(C)c1O2)C(=O)Nc1cc(C)ccc1C (configuration not stated),inactive: 87%
20,CCOc1ccc(CCNC(=O)C2=C(C)C(=O)OC23CCCCC3)cc1,inactive: 76%
21,CCN1C(=O)c2ccccc2S(=O)c2ccc(C(=O)N3CCN(c4cc(Cl)ccc4C)CC3)cc21 (configuration not stated),inactive: 89%
22,Cc1ccccc1CN1CCC(CNC(=O)c2c(C)oc3ncnc(N4CCCCC4)c23)CC1,inactive: 72%

row,SMILES,survival
1,CN(Cc1ccccc1)C(=O)c1ccc2c(c1)N(Cc1ccccc1Cl)C(=O)c1ccccc1S2,inactive: 80%
2,Fc1ccc(-c2noc3ncnc(NCc4ccc(Cl)cc4)c23)cc1,inactive: 66%
3,O=C(CCn1c(=O)c2cccn2c2cccnc21)NCc1ccc(F)cc1,inactive: 87%
4,COc1cc(C2CC(=O)Oc3c2c(=O)n(C)c2ccccc32)ccc1O (configuration not stated),inactive: 64%
5,COc1ccc(C(=O)NC2(C(F)(F)F)C(=O)Nc3c2c(=O)[nH]c(=O)n3CCc2ccc(OC)c(OC)c2)cc1 (configuration not stated),inactive: 75%
6,CCOC(=O)c1c(C)[nH]c(C)c1S(=O)(=O)N(C)CC(=O)Nc1ccc(C)cc1C,inactive: 78%
7,CCCc1nnc(SCC(=O)N2CCCC2)n1CCOC,inactive: 111%
8,O=C(COc1ccccc1)Nc1ccc2nc(SCCOc3ccccc3)sc2c1,inactive: 94%
9,Cc1ccc(Cl)cc1N1CCN(C(=O)c2ccc(CS(=O)(=O)c3ccccc3C)o2)CC1,inactive: 60%
10,CC1=C(C(=O)OCC2CCCO2)C(c2ccccc2)NC(=O)N1 (configuration not stated),inactive: 116%
11,Cc1ccc(NC(=O)Cn2c(=O)n(CC3CCCO3)c(=O)c3ccccc32)cc1 (configuration not stated),inactive: 84%
12,Cc1cc(C)c2oc(-c3cccc(NC(=O)COc4ccc([N+](=O)[O-])cc4)c3)nc2c1,inactive: 102%
13,COc1cc(C2NC(=O)c3c(sc4c3CCN(C)C4)N2)cc(OC)c1OC (configuration not stated),inactive: 75%
14,CCOc1cc2[nH]c(=O)n(Cc3ccc(C(=O)N4CCN(c5cccc(Cl)c5)CC4)cc3)c(=O)c2cc1OCC,inactive: 74%
15,Cn1nc(C(=O)Nc2ccc(F)c(Cl)c2)c2c1-c1ccccc1S(=O)(=O)C2,inactive: 93%
16,Cc1cccc(-c2nnc(C3CCN(S(=O)(=O)c4cccc(Cl)c4)CC3)o2)c1,inactive: 79%
17,CCc1ccc(CNC(=O)C2CCN(c3nn4cc(-c5ccc(F)cc5)nc4s3)CC2)cc1,inactive: 70%
18,O=C(Cn1c(=O)nc(-c2ccccc2)c2cc(Cl)ccc21)N1CCN(c2ccc(F)cc2)CC1,inactive: 78%
19,COc1ccc(Br)cc1CN1C(=O)c2ccccc2C1C(=O)NC1CCCCCC1 (configuration not stated),inactive: 86%
20,CCOC(=O)c1c(C)c(-c2ccccc2)n(CC(=O)NC2CCCCC2)c1C,inactive: 128%
21,COc1cc(OC)c(OC)cc1CN1CCN(S(=O)(=O)c2ccc(NC(C)=O)cc2)CC1,inactive: 106%
22,Cc1cccc(CNC(=O)CS(=O)(=O)c2cccc3nsnc23)c1,inactive: 85%

row,SMILES,survival
1,COc1cc(NC(=O)Cn2cnc(S(=O)(=O)N3CCCC3)c2)cc(OC)c1OC,inactive: 68%
2,COc1ccc(Cl)cc1NC(=O)c1nn(-c2ccc(C)cc2)c(=O)n(C)c1=O,inactive: 69%
3,CCOC(=O)c1c(C)[nH]c(C)c1S(=O)(=O)N1CCCC(C(=O)N2CCN(c3cccc(C)c3C)CC2)C1 (configuration not stated),inactive: 124%
4,COCCNC(=O)c1cnc2sc(N3CCC(C)CC3)nn2c1=O,inactive: 88%
5,CCN(C(=O)c1cnc2ccc(C)cn2c1=O)c1ccccc1,inactive: 93%
6,CCOC(=O)C1CCN(C(c2cccc(F)c2)c2c(O)cc(C)n(CCOC)c2=O)CC1 (configuration not stated),inactive: 131%
7,Clc1ccc(-c2noc3ncnc(NCCc4ccccc4)c23)cc1,inactive: 70%
8,CCc1ccc(NC(=O)C2CCN(c3nn4c(=O)cc(C)nc4s3)CC2)cc1,inactive: 95%
9,CCC(=O)Nc1nnc(C(C)(C)C)s1,inactive: 105%
10,O=C(Nc1ccc2c(c1)CCCN2C(=O)c1cccs1)c1ccccc1Cl,inactive: 82%
11,CCCCn1cc2c(c1-c1ccc(Cl)cc1)c(=O)n(C)c(=O)n2C,inactive: 83%
12,COc1cc(OC)c(Nc2nc3ccc(C(=O)c4ccccc4)cc3n3c(C)nnc23)cc1Cl,inactive: 93%
13,O=C(Nc1ccc(OC(F)(F)F)cc1)c1cc2ccccn2n1,inactive: 83%
14,O=c1nc2n(-c3ccccc3F)c3ccccc3cc-2c(=O)[nH]1,inactive: 58%
15,Cc1cc(C)cc(NS(=O)(=O)c2cc3c(cc2C)NC(=O)CO3)c1,inactive: 78%
16,COc1ccc(Cl)cc1NC(=O)c1sc2nc3n(c(=O)c2c1C)CCC3,inactive: 88%
17,COc1ccc(NC(=O)CSc2nnc(-c3nonc3NC(C)=O)n2-c2ccccc2)cc1,inactive: 79%
18,CCOC(=O)c1c(NC(=O)c2ccc(S(=O)(=O)N(CC(C)C)CC(C)C)cc2)sc2c1CCN(C(=O)OCC)C2,inactive: 146%
19,CCC(=O)N(CCC(c1ccccc1)c1ccc2c(c1)OCO2)Cc1ccc(OC(C)C)cc1 (configuration not stated),active: 1%
20,CCOc1ccc(CCNS(=O)(=O)c2cc(Br)cc3c2N(C(C)=O)CC3)cc1OCC,inactive: 101%
21,Cc1cc(C)n(-c2nc3ccccc3nc2Nc2cccc(C)c2C)n1,active: 7%
22,CCC(Sc1nc2ccccc2c(=O)n1CCc1ccc(OC)c(OC)c1)C(=O)N(CC)CC (configuration not stated),inactive: 135%

row,SMILES,survival
1,CCCN(C(=O)Cn1cnc2onc(-c3ccc(F)cc3)c2c1=O)c1cccc(Cl)c1,inactive: 127%
2,CCN(CC)C(=O)Cn1c(=O)n(Cc2ccc(C(=O)NCCc3ccc(OC)c(OC)c3)cc2)c(=O)c2ccccc21,inactive: 93%
3,COC(=O)c1c(NC(=O)CCCOc2cccc(C)c2)sc2c1C(C(=O)OC)CC2 (configuration not stated),active: -3%
4,CCc1ccc(CN(Cc2cn[nH]c2-c2ccc(OC)cc2)C(=O)Nc2cc(Cl)ccc2OC)cc1,inactive: 75%
5,CC(=O)c1ccc(N2C(=O)N(CC(=O)c3ccc(F)cc3)c3ccccc3S2(=O)=O)cc1,inactive: 135%
6,Cc1ccc(-n2ncc3c(NC4CCCCCC4)ncnc32)cc1Cl,inactive: 87%
7,Cc1ccc(-n2ncc(C(=O)NCc3ccco3)c2C2CCN(C(=O)OC(C)(C)C)CC2)c(C)c1,inactive: 19%
8,Cc1occc1-c1nnc(SCC(=O)N2CCCC(C)C2)n1CC1CCCO1 (configuration not stated),inactive: 109%
9,COc1ccc(S(=O)(=O)NCCc2csc(-c3ccc(F)cc3)n2)cc1F,inactive: 81%
10,CCCCN(CCCNC(=O)c1cc(Nc2ccc(OC)c(OC)c2)nc2ccccc12)Cc1ccccc1,inactive: 79%
11,CCN(CC)C(=O)CSc1nc(C)cc(=O)[nH]1,inactive: 101%
12,CCOC(=O)C1=C(C)N=C2SCCC(=O)N2C1c1ccc(OCc2ccccc2)cc1 (configuration not stated),inactive: 121%
13,Cc1nonc1NC(=O)CNC1CCCCC1,inactive: 111%
14,O=C(CSc1nnc(-c2cccs2)o1)N1c2ccccc2CCc2ccccc21,inactive: 98%
15,Cc1sc2ncn(CC(=O)N(C)c3ccc(Br)cc3)c(=O)c2c1S(=O)(=O)N1CCC(C)CC1,inactive: 86%
16,Cc1nc2c(C(=O)NCc3ccccc3)c[nH]n2c(=O)c1Cc1ccccc1Cl,inactive: 22%
17,CC(=O)N1CCc2cc(S(=O)(=O)CCC(=O)N3CCN(c4cccc(C)c4C)CC3)ccc21,inactive: 88%
18,Cc1cccc(NC(=O)c2c(C)oc3ncn(CC(C)C)c(=O)c23)n1,inactive: 71%
19,Cc1nnc(SCC(=O)N(C(C)C)C(C)C)[nH]c1=O,inactive: 102%
20,O=C(NCCc1ccccc1)c1cc(-c2ccc(Cl)cc2)on1,inactive: 101%
21,COc1cccc(NC(=O)Nc2cccc(-c3cn4cccnc4n3)c2)c1,inactive: 90%
